Data as given in PubChem BioAssay AID662 (National Center for Advancing Translational Sciences (NCATS), 2007).
Out of some 71,000 compounds screened, about 1,800 (2.5%) were called active. Inconclusive results, whose numbers are uncertain, are shown with a selection of clear calls. The call rests on the fitted dose curve; in most records, active means well fitted activation curve with a large enough effect in the signal ratio, with a control signal flat (not every such curve was filed as active); inconclusive means small, poorly fitted or top-dose-only effect, or effect the other way, or a change in a side signal; inactive means flat fitted curve, though single readings scatter; the % refers to the signal ratio. A potency beside an inconclusive call is a rough fit, not a confirmed value.

Assay: Cell signaling CRE-BLA (Fsk stim); on activity change, negative = inhibition: % of control where 0% means no effect
Details: CHO CRE-bla reporter (cAMP response element driving beta-lactamase), forskolin EC10, beta-lactamase ratio; activity change, negative = inhibition: at 38.2 µM (top of the series) unless noted
Procedure, shortened: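 CRE-bla CHO reporter cells treated with compound titration plus EC10 NKH 477 (water-soluble forskolin), incubated 3 h at 37 °C; CCF4 loading 2 h at room temperature, 460/530 nm emission ratio read, AC50 values derived for positive or negative modulators.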
Potency means the concentration at half of the fitted maximal effect; tags describe the fitted curve by direction and shape.

| Structure (SMILES) | activity change, negative = inhibition | Potency |
| --- | --- | --- |
| COc1ccccc1C(=O)Nc1ccc2c(c1)nc(CN1CCN(C(C)=O)CC1)n2C | inactive |  |
| CS(=O)(=O)N1CCCC(C(=O)NCCCN2CCOCC2)C1 (centres undefined) | inconclusive: -23.7% |  |
| N#Cc1nc(-c2cccs2)oc1N1CCN(c2ccccc2)CC1 |  | inconclusive: 3.98 µM [rising, full curve] |
| COCCCNC(=O)c1ccc2nc3ccccc3c(=O)n2c1 |  | inconclusive: 12.6 µM [rising, partial curve] |
| Cn1c(CCNC(=O)c2cccs2)nnc1SCC(=O)N1CCN(c2ccccc2)CC1 |  | inconclusive: 0.631 µM [rising, single point] |
| CCOC(=O)c1c(NC(=O)c2csc(C)c2)sc(C(C)=O)c1C | inconclusive: 25.1% |  |
| COc1ccc2cc3cc(C(=O)N4CCN(Cc5ccc6c(c5)OCO6)CC4)oc3nc2c1 | inconclusive: -9.7% |  |
| CCCCc1cc2c(c(NC(C)=O)n1)c(=O)oc1ccccc12 | inactive |  |
| CC(NC(=O)C1C2C=CC(C2)C1C(=O)O)c1ccccc1 (centres undefined) | inactive |  |
| CC1Cc2ccccc2N1C(=O)CSc1nnc2n1C(C)(C)Cc1ccccc1-2 (centres undefined) | inconclusive: -17.7% [fluorescent] |  |
| COC(=O)c1sccc1NC(=O)c1csc(C)c1 |  | inconclusive: 25.1 µM [rising, single point] |
| O=C1CSC(=S)N1/N=C\c1ccc(Cl)c([N+](=O)[O-])c1 | inactive: -21.3% [at 7.6 µM] |  |
| CCn1c(C(=O)N2CCC(C(=O)NCCCSC3CCCCC3)CC2)cc2sccc21 | inconclusive: -29.2% |  |
| C=C(C)COc1ccc(-c2nc(N)nc(C)c2Oc2ccccc2OC)c(O)c1 | inconclusive: 4.18% |  |
| CC(C)[C@@H](CC(=O)N[C@@H]1CCCC[C@H]1C(=O)N[C@H](CC(=O)N[C@@H](CCC(=O)O)CC(=O)O)Cc1ccccc1)NC(=O)C[C@H](CO)NC(=O)[C@@H]1CNCC[C@H]1N | inactive |  |
| COc1ccc(-n2c(Cc3cccn3C)nnc2SCC(=O)Nc2cccc(Cl)c2)cc1 | inconclusive: -16.5% |  |
| COc1ccc2[nH]c(=O)c(CN(C(=O)c3ccco3)C3CCCCC3)cc2c1 |  | inconclusive: 15.8 µM [rising, partial curve] |
| COC(=O)c1[nH]c2ccc(C)cc2c1NC(=O)CCN1CCN(C2CCCCC2)CC1 | inconclusive: 5.22% |  |
| C(=C\CSc1nnnn1-c1ccccc1)/CSc1nnnn1-c1ccccc1 | inconclusive: 14.5% [cytotoxic] |  |
| COc1cc(C(=O)NCc2cn3ccsc3n2)cc(OC)c1OC |  | inconclusive: 12.6 µM [rising, partial curve] |
| CC(C)Cn1c(N)c(C(=O)COC(=O)c2ccc3ccccc3n2)c(=O)n(C)c1=O |  | active: 1.26 µM |
| CCc1c(C)nc(N2CCOCC2)[nH]c1=O | inactive |  |
| COCCn1c(=O)c(-c2cc(F)cc(F)c2)nc2cnc(Oc3ccccc3)nc21 | inactive |  |
| CCN1CCN(C(=O)C(NS(=O)(=O)c2ccc3nc(C)sc3c2)C(C)C)CC1 (centres undefined) | inactive |  |
| COC(=O)c1ccc(C(=O)OC)c(NS(C)(=O)=O)c1 | inactive |  |
| O=C(CSc1nnnn1-c1ccc(Cl)cc1)N1CCc2ccccc2C1 | inconclusive: 11.2% |  |
| C[C@H](NCCN(C)C)[C@@H]1CCC2C3CCc4cc(O)ccc4[C@H]3CCC21C (some centres undefined) | inactive: -7% [at 7.6 µM] |  |

| Structure (SMILES) | activity change, negative = inhibition | Potency |
| --- | --- | --- |
| COc1ccccc1N=c1oc2c(OC)cccc2cc1C(=O)NCc1ccco1 | inactive |  |
| Cc1cccc2cc(CN(CCN3CCCC3)C(=O)NC3CCCCC3)c(=O)[nH]c12 | inconclusive: -27.2% |  |
| Cc1c(S(=O)(=O)Nc2cccc(Cl)c2)c(=O)n(C)c(=O)n1C |  | active: 2 µM |
| Cc1cc(C)nc(SCc2csc(N)n2)n1 | inconclusive: 25.3% [at 7.6 µM] |  |
| O=C(C1CCC(CNS(=O)(=O)c2cccs2)CC1)N1CCCCC1 (centres undefined) | inactive |  |
| CC1CCCN(C(=O)C2CCN(CC3CC=CCC3)CC2)C1 (centres undefined) | inactive |  |
| O=S(=O)(CCSc1ccccn1)c1nc2ccccc2s1 | inconclusive: -4.56% |  |
| CCCCn1c2c(c(=O)n(C)c1=O)C(CC(=O)OCC(=O)Nc1cccc(C(F)(F)F)c1)C(=O)N2 (centres undefined) | inactive |  |
| CC1CCc2cc(F)ccc2N1C(=O)c1ccc2c(c1)OCO2 (centres undefined) | inactive |  |
| CC(=O)c1cccc(NC(=O)C2CCN(S(=O)(=O)c3c(C)n[nH]c3C)CC2)c1 | inconclusive: -8.66% |  |
| O=C1CN2C(=Nc3ccc(Cl)cc3C2c2ccccc2)CN1 (centres undefined) |  | inconclusive: 3.16 µM [falling, single point] |
| CCCCn1nnnc1SCC(=O)Nc1ccc2c(c1)OCO2 | inactive |  |
| Cn1cnnc1SCC(=O)Nc1sccc1C#N | inconclusive: -2.1% |  |
| CCc1ccc2c(COC(=O)c3n[nH]c4ccccc34)cc(=O)oc2c1 |  | inconclusive: 3.98 µM [rising, full curve] |
| COc1cccc(-c2nn(C)c3sc(C(=O)Nc4ccc5c(c4)OCCO5)cc23)c1 |  | active: 1.26 µM |
| COc1ccc2nc(NC(=O)CSC3=NCCS3)sc2c1 | inconclusive: -16.8% |  |
| CCN(CC)c1ccc(NC(=O)c2ccco2)cc1 | inactive |  |
| CC(=O)c1c(C(C)=O)c(C)n(Cc2ccc3c(c2)OCO3)c1C | inactive |  |
| COC(=O)CNC(=O)COC(=O)c1cc(Cl)cc(Cl)c1N | inactive |  |
| Cc1oc(C)c(C(N)=O)c1C(N)=O | inactive |  |
| O=C(CN1C(=O)C2CC=C(Cl)CC2C1=O)NCc1ccccc1 (centres undefined) | inconclusive: -5.5% [at 7.6 µM] |  |
| CCN1C(=O)NC2C1N(S(C)(=O)=O)CCN2S(C)(=O)=O (centres undefined) | inconclusive: -7.02% [at 7.6 µM] |  |
| O=C(c1ccccc1)c1ccc2nc(N3CCN(C(=O)c4ccco4)CC3)c3nncn3c2c1 | inconclusive: 29.1% |  |
| CCOc1cc(N2CCOCC2)c(OCC)cc1NC(=O)Cn1[nH]c(=O)c2ccccc2c1=O |  | active: 0.1 µM |
| NS(=O)(=O)c1cc2c(cc1Cl)N[C@@H](C(Cl)Cl)NS2(=O)=O | inactive |  |
| CCn1c(SCc2cccnc2)nc2c1c(=O)n(C)c(=O)n2C |  | inconclusive: 10 µM [rising, partial curve] |
| Cc1ccc(-c2n[nH]c(=O)c3ccccc23)cc1N | inconclusive: -20% |  |
